Assay results: the supplement of paper PMC8728848
Some of the results follow.

What was measured:
Test in all cases: glycan array binding signal (z-score within array); higher = stronger binding
Conditions in all cases: glycan notation: IUPAC condensed, linker removed
[1] = biological target: Fuc(a1-2)Gal6S(b1-4)Glc6S
Procedure, shortened: (§1)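 Glycan array binding is given as a within-array Z-score, which can be read as non-binding when negative. The arrays, 3228 of them, came from the Consortium for Functional Glycomics database and were retained only where the protein sequence was available. Z-scores were averaged across arrays of the same protein sequence at different concentrations or buffers and across linkers.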

[2] = biological target: Fuc(a1-2)Gal6S(b1-4)GlcNAc
Procedure, shortened: as §1

[3] = biological target: Fuc(a1-2)[Gal(a1-3)]Gal
Procedure, shortened: as §1

[4] = biological target: Fuc(a1-2)[Gal(a1-3)]Gal(b1-3)GalNAc
Procedure, shortened: as §1

[5] = biological target: Fuc(a1-2)[Gal(a1-3)]Gal(b1-3)GlcNAc
Procedure, shortened: as §1

[6] = biological target: Fuc(a1-2)[Gal(a1-3)]Gal(b1-3)GlcNAc(b1-2)Man(a1-3)[Fuc(a1-2)[Gal(a1-3)]Gal(b1-3)GlcNAc(b1-2)Man(a1-6)]Man(b1-4)GlcNAc(b1-4)GlcNAc
Procedure, shortened: as §1

[7] = biological target: Fuc(a1-2)[Gal(a1-3)]Gal(b1-3)GlcNAc(b1-2)Man(a1-3)[Fuc(a1-2)[Gal(a1-3)]Gal(b1-3)GlcNAc(b1-2)Man(a1-6)]Man(b1-4)GlcNAc(b1-4)[Fuc(a1-6)]GlcNAc
Procedure, shortened: as §1

[8] = biological target: Fuc(a1-2)[Gal(a1-3)]Gal(b1-3)GlcNAc(b1-3)GalNAc
Procedure, shortened: as §1

[9] = biological target: Fuc(a1-2)[Gal(a1-3)]Gal(b1-4)Glc
Procedure, shortened: as §1

[10] = biological target: Fuc(a1-2)[Gal(a1-3)]Gal(b1-4)GlcNAc
Procedure, shortened: as §1

[11] = biological target: Fuc(a1-2)[Gal(a1-3)]Gal(b1-4)GlcNAc(b1-2)Man(a1-3)[Fuc(a1-2)[Gal(a1-3)]Gal(b1-4)GlcNAc(b1-2)Man(a1-6)]Man(b1-4)GlcNAc(b1-4)GlcNAc
Procedure, shortened: as §1

[12] = biological target: Fuc(a1-2)[Gal(a1-3)]Gal(b1-4)GlcNAc(b1-2)Man(a1-3)[Fuc(a1-2)[Gal(a1-3)]Gal(b1-4)GlcNAc(b1-2)Man(a1-6)]Man(b1-4)GlcNAc(b1-4)[Fuc(a1-6)]GlcNAc
Procedure, shortened: as §1

[13] = biological target: Fuc(a1-2)[Gal(a1-3)]Gal(b1-4)GlcNAc(b1-3)GalNAc
Procedure, shortened: as §1

[14] = biological target: Fuc(a1-2)[Gal(a1-3)]Gal(b1-4)[Fuc(a1-3)]Glc
Procedure, shortened: as §1

[15] = biological target: Fuc(a1-2)[Gal(a1-3)]Gal(b1-4)[Fuc(a1-3)]GlcNAc
Procedure, shortened: as §1

[16] = biological target: Fuc(a1-2)[Gal(a1-3)]Gal(b1-4)[Fuc(a1-3)]GlcNAc(b1-3)GalNAc
Procedure, shortened: as §1

[17] = biological target: Fuc(a1-2)[Gal(a1-4)]Gal(b1-4)GlcNAc
Procedure, shortened: as §1

[18] = biological target: Fuc(a1-2)[GalNAc(a1-3)]Gal
Procedure, shortened: as §1

[19] = biological target: Fuc(a1-2)[GalNAc(a1-3)]Gal(b1-3)GalNAc(a1-3)[Fuc(a1-2)]Gal(b1-4)GlcNAc
Procedure, shortened: as §1

[20] = biological target: Fuc(a1-2)[GalNAc(a1-3)]Gal(b1-3)GlcNAc
Procedure, shortened: as §1

[21] = biological target: Fuc(a1-2)[GalNAc(a1-3)]Gal(b1-3)GlcNAc(b1-2)Man(a1-3)[Fuc(a1-2)[GalNAc(a1-3)]Gal(b1-3)GlcNAc(b1-2)Man(a1-6)]Man(b1-4)GlcNAc(b1-4)GlcNAc
Procedure, shortened: as §1

[22] = biological target: Fuc(a1-2)[GalNAc(a1-3)]Gal(b1-3)GlcNAc(b1-2)Man(a1-3)[Fuc(a1-2)[GalNAc(a1-3)]Gal(b1-3)GlcNAc(b1-2)Man(a1-6)]Man(b1-4)GlcNAc(b1-4)[Fuc(a1-6)]GlcNAc
Procedure, shortened: as §1

[23] = biological target: Fuc(a1-2)[GalNAc(a1-3)]Gal(b1-3)GlcNAc(b1-3)GalNAc
Procedure, shortened: as §1

[24] = biological target: Fuc(a1-2)[GalNAc(a1-3)]Gal(b1-4)Glc
Procedure, shortened: as §1

[25] = biological target: Fuc(a1-2)[GalNAc(a1-3)]Gal(b1-4)GlcNAc
Procedure, shortened: as §1

[26] = biological target: Fuc(a1-2)[GalNAc(a1-3)]Gal(b1-4)GlcNAc(b1-2)Man(a1-3)[Fuc(a1-2)[GalNAc(a1-3)]Gal(b1-4)GlcNAc(b1-2)Man(a1-6)]Man(b1-4)GlcNAc(b1-4)GlcNAc
Procedure, shortened: as §1

[27] = biological target: Fuc(a1-2)[GalNAc(a1-3)]Gal(b1-4)GlcNAc(b1-2)Man(a1-3)[Fuc(a1-2)[GalNAc(a1-3)]Gal(b1-4)GlcNAc(b1-2)Man(a1-6)]Man(b1-4)GlcNAc(b1-4)[Fuc(a1-6)]GlcNAc
Procedure, shortened: as §1

[28] = biological target: Fuc(a1-2)[GalNAc(a1-3)]Gal(b1-4)GlcNAc(b1-3)Gal(b1-4)GlcNAc
Procedure, shortened: as §1

[29] = biological target: Fuc(a1-2)[GalNAc(a1-3)]Gal(b1-4)GlcNAc(b1-3)Gal(b1-4)GlcNAc(b1-3)Gal(b1-4)GlcNAc
Procedure, shortened: as §1

[30] = biological target: Fuc(a1-2)[GalNAc(a1-3)]Gal(b1-4)GlcNAc(b1-3)GalNAc
Procedure, shortened: as §1

[31] = biological target: Fuc(a1-2)[GalNAc(a1-3)]Gal(b1-4)[Fuc(a1-3)]GlcNAc
Procedure, shortened: as §1

[32] = biological target: Fuc(a1-2)[GalNAc(a1-3)]Gal(b1-4)[Fuc(a1-3)]GlcNAc(b1-3)GalNAc
Procedure, shortened: as §1

[33] = biological target: Fuc(a1-2)[GalNAc(a1-4)]Gal(b1-4)GlcNAc
Procedure, shortened: as §1

[34] = biological target: Fuc(a1-2)[GalNAc(b1-3)]Gal
Procedure, shortened: as §1

[35] = biological target: Fuc(a1-3)GlcNAc
Procedure, shortened: as §1

[36] = biological target: Fuc(a1-3)[Gal(b1-4)]Glc6S
Procedure, shortened: as §1

[37] = biological target: Fuc(a1-3)[Gal(b1-4)]GlcNAc
Procedure, shortened: as §1

[38] = biological target: Fuc(a1-3)[Gal(b1-4)]GlcNAc(b1-2)Man(a1-3)[Fuc(a1-3)[Gal(b1-4)]GlcNAc(b1-2)Man(a1-6)]Man(b1-4)GlcNAc(b1-4)GlcNAc
Procedure, shortened: as §1

B1: XCL (Xerocomus chrysenteron) (protein)
chain: MSYSITLRVYQTNRDRGYFSIVEKTVWHFANGGTWSEANGAHTLTQGGSGTSGVLRFLSTKGERITVAVGVHNYKRWCDVVTGLKPDETALVINPQYYNNGGRDYVREKQLAEYSVTSAIGTKVEVVYTVAEGNNLEANVIFS
glycan array binding signal (z-score) [1]: -0.159
glycan array binding signal (z-score) [2]: -0.324
glycan array binding signal (z-score) [3]: -0.323
glycan array binding signal (z-score) [4]: -0.324
glycan array binding signal (z-score) [5]: -0.296
glycan array binding signal (z-score) [6]: -0.311
glycan array binding signal (z-score) [7]: -0.31
glycan array binding signal (z-score) [8]: -0.303
glycan array binding signal (z-score) [9]: -0.324
glycan array binding signal (z-score) [10]: -0.319
glycan array binding signal (z-score) [11]: -0.316
glycan array binding signal (z-score) [12]: -0.317
glycan array binding signal (z-score) [13]: 0.047
glycan array binding signal (z-score) [14]: -0.32
glycan array binding signal (z-score) [15]: -0.292
glycan array binding signal (z-score) [16]: -0.296
glycan array binding signal (z-score) [17]: -0.325
glycan array binding signal (z-score) [18]: -0.237
glycan array binding signal (z-score) [19]: 0.356
glycan array binding signal (z-score) [20]: -0.012
glycan array binding signal (z-score) [21]: 0.401
glycan array binding signal (z-score) [22]: -0.222
glycan array binding signal (z-score) [23]: -0.249
glycan array binding signal (z-score) [24]: -0.161
glycan array binding signal (z-score) [25]: 0.068
glycan array binding signal (z-score) [26]: 0.185
glycan array binding signal (z-score) [27]: -0.245
glycan array binding signal (z-score) [28]: -0.202
glycan array binding signal (z-score) [29]: -0.277
glycan array binding signal (z-score) [30]: -0.085
glycan array binding signal (z-score) [31]: -0.21
glycan array binding signal (z-score) [32]: -0.188
glycan array binding signal (z-score) [33]: -0.299
glycan array binding signal (z-score) [34]: -0.325
glycan array binding signal (z-score) [35]: -0.302
glycan array binding signal (z-score) [36]: -0.326
glycan array binding signal (z-score) [37]: -0.303
glycan array binding signal (z-score) [38]: -0.324
